Results reported in the supplement of paper PMC11417369.
± gives the standard deviation of the averaged measurements. Some of the results follow.

System: PfAP2-I AP2 domain 3 (GST-tagged)
Experiment: gcPBM binding intensity (ln(normalized median fluorescence intensity)); higher = stronger DNA binding
Outline: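 Binding of GST-tagged P. falciparum DNA-binding domains, expressed in E. coli and used at about 25 μg on average, was carried out for 1 h in 1× PBS containing 1% milk, 0.2 mg/ml BSA, 0.5% salmon testes DNA and 0.03% Triton X-100. The target was an Agilent 4 × 180k array of primer-extended double-stranded 36-bp intergenic genomic probes plus negative controls, read with Alexa488 anti-GST antibody at 488 nm. Binding intensity is the highest Masliner-normalised natural-log median intensity across replicate spots of either probe orientation.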

Sequence | gcPBM binding intensity (ln)
TTATGTATTCATTTTTTTTAAGCACCCCAAAATGAT [CACACA_negctrl_site1344] | 10.5 ± 0.62
ATAATATATATATAAACACACAAAAAAAATTATATA [CACACA_site1534] | 7.78 ± 0.38
TATTTATTAAAACACACACACACACCCACAAAATAA [CACACA_site241] | 8.41 ± 0.099
ATTTTTTTTTATGATACACACTTGGATAATTAAAAC [CACACA_site4473] | 7.85 ± 0.58
CCACATGATATGATTACACACATATATATATTTACA [CACACA_site164] | 7.87 ± 0.57
ATTCTATTATAATACACACCCAAATATTAAAAAGAT [CACACA_site2960] | 8.69 ± 0.26
GATGTTGCAAAATTCTGTACATATAAATGTATACAT [XGTACX_site5009] | 8.18 ± 0.49
TATTATATATATATATGTACATATATATGCTAAAAA [XGTACX_site5297] | 7.89 ± 0.59
TAATGAATTTAAATTTTAAAATTAATAAAAAAAATA [TGCATGCA_negctrl_site15] | 7.55 ± 0.59
CAAAATGTTTCTCATTGTACACAAAATAAATGTCCT [XGTACX_site6798] | 7.76 ± 0.46
ATTAGTAAATTTATATGTACACATTGTTATTTTATA [XGTACX_site1177] | 8.13 ± 0.23
ACATTTACAAGGAAAGTGCATATAAGAAAAATAAAA [GTGCAC_site9587] | 10.2 ± 0.11
ATACATATGTATATTTGTACATATTAGACAATCTTA [XGTACX_site6706] | 7.44 ± 0.41
GTAACATTTTAAATATATACATATAATGTATTTATA [GTGCAC_negctrl_site344] | 7.48 ± 0.37
ATTAAACCGTGGGAGCACACACACACACACACACAT [TGCATGCA_negctrl_site72] | 8.61 ± 0.35
TGTTGTATCAATTTTTGTACATAACACATATGTATA [XGTACX_site3666] | 7.73 ± 0.45
ATTAATTAAAAGGGAACACATAGAAATTATAAAACA [GTGCAC_negctrl_site420] | 7.93 ± 0.75
ATATATATATTATGGGGTACAAACATCAAAAGATTT [XGTACX_site3944] | 8.88 ± 0.23
TGTGTAGGGGATATTCTACTTTAAAAATAAATATAT [CACACA_negctrl_site207] | 8.16 ± 0.28
TATAAAAGATTGGAATGTACATAAGAAAAAAATATA [XGTACX_site5028] | 8.2 ± 0.4
GGCCCAACTTCTTCTGACGAAAACGTAAATTGTGTG [XGTACX_negctrl_site533] | 7.61 ± 0.86
AATCATATTAGTATGGTGCAACATATATAAATATAT | 10.2 ± 0.31

Sequence | gcPBM binding intensity (ln)
TTCAAGATTTATTATACACACATATTAATATTTATA [CACACA_site6413] | 7.96 ± 0.42
ACACATATATTAAATGTGCACTGAAATATGCATATA [GTGCAC_site9936] | 10.065 ± 0.007
ACTTGTAAGAGACACACACACACACGGATATAAATA [CACACA_site6517] | 7.98 ± 0.58
TTATTTTCCCTTTGTGCATGCAGTTTACTTTTTGTG [TGCATGCA_site993] | 9.26 ± 0.77
ATATATGTATATTTATGTACGTATTCCTGTATAGTC [XGTACX_site5763] | 8.04 ± 0.36
CAAAATAAAAATAACACACACATTTATTTATATACA [CACACA_site6679] | 7.58 ± 0.36
ACACAAGCACACAAATGTACATATATATATATATAT [XGTACX_site5146] | 9.55 ± 0.73
GGAAAAAAAAATAAATGTACGAATTAACATATCAAA [XGTACX_site5653] | 7.54 ± 0.79
ATGGAAGGATAATAAAAACCTTTACCTTTCTGTTTA [GTGCAC_negctrl_site380] | 7.42 ± 0.76
ATAATGAAAACAAGCACACATACATAAAATAAAATA [CACACA_site3257] | 7.95 ± 0.6
ATAAATTTTTAAACAGCACACATAAATATAATATAT [CACACA_site8691] | 8.28 ± 0.4
AATATTACAATTTGGTGTACAGGTGCACATGCCTCA [XGTACX_site1730] | 10.6 ± 0.33
TAGCTTATAAGATATGCACACACAACACTTACAAAA [CACACA_site8174] | 8.62 ± 0.15
TCTACAATTTTAATTACACACTATAAAAAAGAAAGA [CACACA_site5624] | 7.92 ± 0.48
TTTAAAATTATAAGGATTAAAAAAAAAAAAAATAAA [CACACA_negctrl_site114] | 7.5 ± 0.43
AACAAATAAAAAAAAATAAAAATAAAAATAAAAAAA [XGTACX_negctrl_site451] | 7.5 ± 0.49
AAGAATTATATTAATAGTACATATATATTAATTTAT [XGTACX_site5713] | 7.55 ± 0.38
TTATTTATGAAGTATACACACAATATAGATTTATAT [CACACA_site6703] | 7.55 ± 0.67
TTTTGTTATTATAAATAGTAACATTTGTGAATATAT [TGCATGCA_negctrl_site132] | 7.58 ± 0.5
AAGACATTTTTTTGTTGTACGTCTTCATTTATTGTA [XGTACX_site2890] | 8.03 ± 0.55
TATTAATATGGTAATACACACTAATATACTTTTGTT [CACACA_site6860] | 7.72 ± 0.64
ATATATATATATATATGTACGTATTCATAAACAACA [XGTACX_site4282] | 9.4 ± 0.31
